# Screen size: about 310,000 compounds; about 2,200 (0.71%) showed an effect of 50% or more. The effect is printed as a negative number. The list shows a part of the results.
# Molecular target: human ether-à-go-go-related gene (hERG) potassium channel (human, UniProt Q12809)
# Assay: primary screen, population patch clamp on CHO cells stably expressing hERG
# human ether-à-go-go-related gene (hERG) potassium channel, sequence (Q12809 whole entry, looked up): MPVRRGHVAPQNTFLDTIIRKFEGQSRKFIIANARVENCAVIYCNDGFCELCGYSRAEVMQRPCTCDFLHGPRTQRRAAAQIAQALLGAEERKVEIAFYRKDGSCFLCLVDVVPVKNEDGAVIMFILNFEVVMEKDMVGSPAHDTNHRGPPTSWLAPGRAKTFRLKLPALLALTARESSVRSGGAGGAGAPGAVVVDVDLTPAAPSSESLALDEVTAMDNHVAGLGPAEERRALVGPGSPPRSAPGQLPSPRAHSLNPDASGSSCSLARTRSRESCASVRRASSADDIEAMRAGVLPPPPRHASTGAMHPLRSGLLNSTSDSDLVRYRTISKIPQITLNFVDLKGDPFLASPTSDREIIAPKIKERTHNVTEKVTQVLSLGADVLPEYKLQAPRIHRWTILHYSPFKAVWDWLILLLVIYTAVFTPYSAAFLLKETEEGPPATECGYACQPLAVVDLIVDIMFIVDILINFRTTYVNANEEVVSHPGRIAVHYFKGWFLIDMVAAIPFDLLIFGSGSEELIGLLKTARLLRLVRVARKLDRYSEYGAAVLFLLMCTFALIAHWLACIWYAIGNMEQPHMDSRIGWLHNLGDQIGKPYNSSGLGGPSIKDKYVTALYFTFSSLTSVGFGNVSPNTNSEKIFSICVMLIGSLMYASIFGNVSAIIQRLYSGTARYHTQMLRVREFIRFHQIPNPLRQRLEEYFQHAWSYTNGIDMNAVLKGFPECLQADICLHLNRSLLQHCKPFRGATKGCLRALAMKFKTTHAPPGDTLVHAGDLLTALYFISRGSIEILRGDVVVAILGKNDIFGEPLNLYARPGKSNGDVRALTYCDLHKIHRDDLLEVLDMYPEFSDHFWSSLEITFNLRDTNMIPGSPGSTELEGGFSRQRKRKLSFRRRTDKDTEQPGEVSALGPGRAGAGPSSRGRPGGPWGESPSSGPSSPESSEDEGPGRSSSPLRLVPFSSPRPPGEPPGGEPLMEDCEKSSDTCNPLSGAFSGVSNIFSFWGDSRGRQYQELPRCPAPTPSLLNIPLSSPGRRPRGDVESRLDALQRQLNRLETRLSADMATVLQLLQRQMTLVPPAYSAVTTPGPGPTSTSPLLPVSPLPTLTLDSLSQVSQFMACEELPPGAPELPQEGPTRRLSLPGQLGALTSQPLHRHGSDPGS
row,Compound,"hERG current change (%, negative = inhibition) at 1uM [%]"
1,COc1cc(/C=C(\C#N)C(=O)Nc2cccc(C(=O)O)c2)ccc1OCc1ccc(Cl)cc1,15.3
2,COc1ccccc1N1CCN(C2CCCN(C(=O)c3cccc(-c4ccco4)c3)C2)CC1 (centres unmarked),5.08
3,CC(C)CNC(=O)c1cccc(NC(=O)C(C)C)c1,11.8
4,O=C(NCCc1ccccc1)C(=O)NN=C1CCCC1,4.11
5,COc1ccc(-c2cc(C(=O)Nc3ccccc3O)c3ccccc3n2)cc1,3.29
6,CCOc1ccc(/C=N/NC(=O)c2ccccc2O)cc1CN1CC2CC(C1)c1cccc(=O)n1C2 (centres unmarked),5.03
7,CC(C)C(NC(=O)c1ccccc1NC(=O)c1ccco1)C(=O)NNC(=O)c1ccncc1 (centres unmarked),11.6
8,COc1ccc(NC(=O)C(C/C=C(/C)Cl)C(C)=O)cc1 (centres unmarked),8.19
9,CCNc1nc(NCC)n2c(SC(C(=O)Nc3cc(C)ccc3C)c3ccccc3)nnc2n1 (centres unmarked),14.5
10,O=C(c1ccc(S(=O)(=O)N2CCOCC2)cc1)N1CCN(S(=O)(=O)c2ccc(Cl)s2)CC1,11.2
11,CCS(=O)(=O)N1Cc2ccccc2CC1C(=O)NCCc1ccccc1 (centres unmarked),9.83
12,C=C(C)c1cccc(C(C)(C)NC(=O)NCc2ccncc2)c1,9.08
13,Cc1cc(C)n(CC(O)Cn2c(C)c(C)c3ccccc32)n1.O=C(O)C(=O)O (centres unmarked),6.75
14,Cc1c(S(=O)(=O)Nc2ccc3c(c2)OCCO3)c(=O)n(C)c(=O)n1C,-1.82
15,Cc1ccc(Cl)c(OCCN2CCc3ccccc3C2)c1.Cl,17.1
16,COc1ccc(C)c2sc(N(CCCN(C)C)C(=O)CS(=O)(=O)c3ccc(F)cc3)nc12.Cl,5.75
17,Cc1ccc2cc(C)c(SCC(=O)Nc3ccc(S(=O)(=O)N4CCCC4)cc3)nc2c1,22.7
18,COc1ccc(CCNC(=O)/C=C/c2ccc3ccccc3n2)cc1OC,10.9
19,Cc1ccc(C)c(NC(=O)C2CC=CCC2C(=O)O)c1 (centres unmarked),16.6
20,Cc1ccc(S(=O)(=O)N(CC(=O)N2CCC(C(N)=O)CC2)c2cccc(C(F)(F)F)c2)cc1,6.97
21,CN(C)/C(=N\S(=O)(=O)c1ccccc1)c1ccccc1,10.5
22,COC(=O)c1ccc(C(=O)Nc2ccc(N)cc2N)cc1,11.4
23,CCOC(=O)CN(C(=O)CSc1nnc(CNc2ccc(C)cc2C)n1CC)c1ccccc1,-6.78
